# Values joined by “and” are separate entries in the source; they are usually repeats but may differ in a detail not shown here. Identical values can stand only once. Counter-ions that a name gives are not always drawn. The whole screen tested about 5,800 compounds, of which about 620 (11%) showed activity.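 The calls were made as follows: active = score above a cut-off or among the top three wells of a plate; in these data no inactive exceeds 0.85.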 This is a selection; strong and weak results do not stand in their true shares.
# System: primary human hepatic stellate cells (donor 1)
# Assay: scaled lipid accumulation score (0 = DMSO-like, 1 = nortriptyline-like); higher = stronger HSC inactivation (lipid re-accumulation), active = hit call of the paper
# Conditions: 48 h
# [1] = library stock concentration: 1 mM
# [2] = library stock concentration: 10 mM
# [3] = library stock concentration: 3.33 mM
# [4] = library stock concentration: 4.4 mM
# [5] = library stock concentration: 80 uM
# [6] = library stock concentration: 400 uM
# [7] = library stock concentration: 2 mM
# [8] = library stock concentration: 7.9 mM
structure (smiles),measurement,setting,value
CCCCC(C)(O)CC=CC1C(O)CC(=O)C1CCCCCCC(=O)OC (stereo not given) [8-iso Misoprostol],scaled lipid accumulation score,[1],inactive: ≤ 0
CCOC(=O)C1=C(C)NC(C)=C(C(=O)OCC)C1c1ccccc1/C=C/C(=O)OC(C)(C)C,scaled lipid accumulation score,[2],inactive: 0.437
CCOC(=O)C1=C(C)NC(C)=C(C(=O)OCC)C1c1ccccc1/C=C/C(=O)OC(C)(C)C [Lacidipine],scaled lipid accumulation score,[3],inactive: 0.203
same,scaled lipid accumulation score,[4],inactive: 0.419
same,scaled lipid accumulation score,[2],inactive: 0.745
C[C@@H](Oc1cc(-n2cnc3ccc(CN4CCN(C)CC4)cc32)sc1C(N)=O)c1ccccc1C(F)(F)F,scaled lipid accumulation score,[3],active: 1.22
CCOc1cc(CC(=O)N[C@@H](CC(C)C)c2ccccc2N2CCCCC2)ccc1C(=O)O,scaled lipid accumulation score,[2],inactive: ≤ 0
CCOc1cc(CC(=O)N[C@@H](CC(C)C)c2ccccc2N2CCCCC2)ccc1C(=O)O [Repaglinide],scaled lipid accumulation score,,inactive: 0.023
same,scaled lipid accumulation score,[3],inactive: ≤ 0
same,scaled lipid accumulation score,[4],inactive: 0.035
same,scaled lipid accumulation score,[2],inactive: ≤ 0 and inactive: 0.025
O=C(O)C(Cc1c[nH]c2ccccc12)N1C(=O)c2ccccc2C1=O (stereo not given),scaled lipid accumulation score,[5],inactive: ≤ 0
same,scaled lipid accumulation score,[6],inactive: ≤ 0
same,scaled lipid accumulation score,[7],inactive: ≤ 0
same,scaled lipid accumulation score,[3],inactive: ≤ 0
same,scaled lipid accumulation score,[2],inactive: 0.017 and inactive: ≤ 0
CNC(=O)c1ccccc1Nc1nc(Nc2ccc(N3CCOCC3)cc2OC)ncc1Cl,scaled lipid accumulation score,[5],inactive: ≤ -0.016
same,scaled lipid accumulation score,[6],inactive: ≤ -0.016
same,scaled lipid accumulation score,[7],inactive: ≤ -0.016
same,scaled lipid accumulation score,[3],inactive: ≤ 0
same,scaled lipid accumulation score,[2],inactive: ≤ 0 and inactive: ≤ -0.016
CC1=C(C(=O)Nc2cc3cn[nH]c3cc2F)C(c2ccc(C(F)(F)F)cc2)CC(=O)N1 (stereo not given),scaled lipid accumulation score,[5],inactive: 0.022
same,scaled lipid accumulation score,[6],inactive: ≤ 0 and inactive: ≤ -0.005
same,scaled lipid accumulation score,[7],inactive: 0.014 and inactive: ≤ -0.005
same,scaled lipid accumulation score,[3],inactive: ≤ 0
same,scaled lipid accumulation score,[2],inactive: ≤ 0 and inactive: 0.096 and inactive: 0.308
O=NN(CCCl)C(=O)NCCCl [Carmustine],scaled lipid accumulation score,library stock concentration: 9.3 mM,inactive: ≤ 0
same,scaled lipid accumulation score,[2],inactive: ≤ 0
CCOC(=O)c1ncn2c1CN(C)C(=O)c1cc(F)ccc1-2,scaled lipid accumulation score,[2],inactive: ≤ 0
CCOC(=O)c1ncn2c1CN(C)C(=O)c1cc(F)ccc1-2 [Flumazenil],scaled lipid accumulation score,[3],inactive: ≤ 0
same,scaled lipid accumulation score,library stock concentration: 6.6 mM,inactive: ≤ -0.006
same,scaled lipid accumulation score,[2],inactive: ≤ 0 and inactive: ≤ -0.07 and inactive: ≤ -0.006
CC[C@H](NC(=O)c1c(C)c(-c2ccccc2)nc2ccccc12)c1ccccc1,scaled lipid accumulation score,[2],inactive: ≤ 0 and inactive: 0.028
COc1cc(/C=C/c2ccc(O)cc2)cc(OC)c1,scaled lipid accumulation score,[2],inactive: ≤ 0
C[C@@H](N)C1CCC(C(=O)Nc2ccncc2)CC1 (stereo not given in full),scaled lipid accumulation score,[3],inactive: ≤ 0
NCC(O)(CS(=O)(=O)O)c1ccc(Cl)cc1 (stereo not given) [2-Hydroxysaclofen],scaled lipid accumulation score,[2],inactive: ≤ 0 and inactive: 0.019
Cc1cc(C)c2c(c1)[C@@H](N(Cc1cc(C(F)(F)F)cc(C(F)(F)F)c1)c1nnn(C)n1)CCCN2C[C@H]1CC[C@H](C(=O)O)CC1,scaled lipid accumulation score,[3],inactive: ≤ 0
same,scaled lipid accumulation score,[2],inactive: ≤ 0
COc1cc(N2CCC(N3CCN(C)CC3)CC2)ccc1Nc1ncc(Cl)c(-c2c[nH]c3ccccc23)n1,scaled lipid accumulation score,[7],active: 0.981
same,scaled lipid accumulation score,[2],active: 0.967
O=C(O)Cc1ccc(OCCNC[C@H](O)c2ccccc2)cc1 [ZD 2079 hydrochloride],scaled lipid accumulation score,[2],inactive: ≤ -0.001
CC(C1=C(CCN(C)C)Cc2ccccc21)c1ccccn1 (stereo in doubt) [(S)-(+)-Dimethindene maleate],scaled lipid accumulation score,[2],inactive: 0.162
Nc1nc(N)c2nc(CNc3ccc(C(=O)N[C@@H](CCC(=O)O)C(=O)O)cc3)cnc2n1 [Aminopterin],scaled lipid accumulation score,[2],inactive: ≤ 0 and inactive: 0.071
C=C1CC2(O)OC3(CC2C(C)C)C(C)CCC13 (stereo not given) [Curcumol],scaled lipid accumulation score,[3],inactive: ≤ 0
same,scaled lipid accumulation score,[2],inactive: ≤ 0
CC(C(=O)O)c1cccc(C(=O)c2ccccc2)c1 (stereo not given) [Ketoprofen],scaled lipid accumulation score,,inactive: ≤ 0
same,scaled lipid accumulation score,[1],inactive: ≤ 0
same,scaled lipid accumulation score,[3],inactive: ≤ 0
same,scaled lipid accumulation score,[8],inactive: ≤ -0.006 and inactive: ≤ 0
same,scaled lipid accumulation score,[2],inactive: ≤ 0 and inactive: 0.169
CC(C(=O)O)c1cccc(C(=O)c2ccccc2)c1 (stereo not given) [Ketoprofen (s)],scaled lipid accumulation score,[8],inactive: ≤ 0
Cc1[nH]c(/C=C2\C(=O)Nc3ccc(S(=O)(=O)Cc4c(Cl)cccc4Cl)cc32)c(C)c1C(=O)N1CCC[C@@H]1CN1CCCC1,scaled lipid accumulation score,[5],active: 1.15
same,scaled lipid accumulation score,[6],active: 1.16
same,scaled lipid accumulation score,[7],active: 1.16
C[C@H](NC(=O)C(C#N)=Cc1cccc(Br)n1)c1ccccc1,scaled lipid accumulation score,[3],active: 1.05
c1cc(-c2cnn3cc(-c4ccc(N5CCNCC5)cc4)cnc23)c2cccnc2c1,scaled lipid accumulation score,[3],inactive: 0.073
same,scaled lipid accumulation score,[2],inactive: ≤ 0
COc1cc(C(O)CO)ccc1OS(=O)(=O)O (stereo not given) [MHPG sulfate potassium],scaled lipid accumulation score,[2],inactive: ≤ -0.07
Fc1ccc([C@@H]2CCNC[C@H]2COc2ccc3c(c2)OCO3)cc1.O=C(O)/C=C\C(=O)O [Paroxetine],scaled lipid accumulation score,[2],active: 1.02
CC(C)n1nnc2cc(C(=O)O)ccc21,scaled lipid accumulation score,[2],inactive: 0.001
COC(=O)c1c(C)[nH]c(C)c1C(=O)c1ccccc1Cc1ccccc1,scaled lipid accumulation score,[2],inactive: 0.13 and inactive: 0.001
CCCC1O[C@@H]2C[C@H]3[C@@H]4CCC5=CC(=O)C=C[C@]5(C)[C@H]4[C@@H](O)C[C@]3(C)[C@]2(C(=O)CO)O1 (stereo not given in full),scaled lipid accumulation score,[2],inactive: ≤ 0
CCCC1O[C@@H]2C[C@H]3[C@@H]4CCC5=CC(=O)C=C[C@]5(C)[C@H]4[C@@H](O)C[C@]3(C)[C@]2(C(=O)CO)O1 (stereo not given in full) [Budesonide],scaled lipid accumulation score,,inactive: 0.167
same,scaled lipid accumulation score,[3],inactive: ≤ 0
same,scaled lipid accumulation score,[2],inactive: ≤ 0 and inactive: ≤ -0.001
"NCCC1CCCC(CCN)N1 (stereo not given) [MDL 26,630 trihydrochloride]",scaled lipid accumulation score,[2],inactive: ≤ -0.055
CCOC(=O)[C@H](CCc1ccccc1)N[C@H]1CCCN2CCC[C@@H](C(=O)O)N2C1=O [Cilazapril Monohydrate],scaled lipid accumulation score,[3],inactive: ≤ 0
same,scaled lipid accumulation score,[2],inactive: ≤ 0
COc1cc(C(C)=O)ccc1OCCCN1CCC(c2noc3cc(F)ccc23)CC1 [Iloperidone],scaled lipid accumulation score,[3],inactive: 0.045
same,scaled lipid accumulation score,[2],inactive: 0.477

# — the supplement of paper PMC9135407
